Reference: PubChem BioAssay AID485281 (National Center for Advancing Translational Sciences (NCATS), 2010)
About 260 (0.074%) of roughly 350,000 compounds were called active. The shares of active, inactive and inconclusive entries below differ from those in the screen. Calls come from the whole dose curve; as a rule, active = well fitted inhibition curve with a large enough effect; inconclusive = small, poorly fitted or top-dose-only effect; inactive = no such curve, though single readings can be large or run the other way. Potencies beside an inconclusive call are fits to weak or partial responses and may not hold up.

Target: Ferritin light chain (Equus caballus) (UniProt P02791)
Test: qHTS Assay for Identification of Novel General Anesthetics; note: nearly all actives have a fitted effect of over 20% in size
Conditions: apoferritin/1-aminoanthracene competitive binding, fluorescence; series mostly up to 77.5 µM
How it was run: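 Probe: 1-aminoanthracene (50% saturated, PBS). Protein: horse-spleen apoferritin, 10 uM. Incubation: 10 min, room temperature. Detection: 380 nm excitation, 535 nm emission. Analysis: normalized response, four-parameter Hill.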
Potency is the fitted concentration of half-maximal effect; tags give direction and shape of the fitted curve.

UniProt P02791, sequence (P02791 whole entry, looked up): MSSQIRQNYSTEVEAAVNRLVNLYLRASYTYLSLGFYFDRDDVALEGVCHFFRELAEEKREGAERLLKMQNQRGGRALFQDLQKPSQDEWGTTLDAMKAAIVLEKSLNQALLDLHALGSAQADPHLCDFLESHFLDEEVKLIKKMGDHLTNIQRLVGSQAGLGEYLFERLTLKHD

Compound | Potency
COC(=O)c1c(NC(=O)c2ccc(S(=O)(=O)N3CCC(C)CC3)cc2)sc2c1CCN(C)C2 | inconclusive: 28.2 µM [inhibitor, partial curve, poor fit]
COC(=O)[C@H]1CCCN1C(=O)Nc1cccc(Oc2c(F)c(F)c(F)c(F)c2F)c1 | inconclusive: 28.2 µM [inhibitor, partial curve]
CC1Cc2ccccc2N1C(=O)Cn1cnc2ccccc21 (stereo not drawn) | inconclusive: 25.1 µM [inhibitor, partial curve]
CCOC(=O)c1cc(-c2ccc(OC)cc2)nc2c1c(C)nn2CCC(N)=S | inconclusive: 35.5 µM [inhibitor, single point]
Cc1ccccc1N1CCN(C(=O)CN2C(=O)c3ccccc3C2=O)CC1 | inconclusive: 28.2 µM [inhibitor, partial curve]
CC1(C)C2CCC(C2)C1(C)N=C1OC(CCl)CS1 (stereo not drawn) | inconclusive: 14.1 µM [inhibitor, partial curve]
COc1ccc(-c2csc3nc(C)nc(N4CCN(C(C)=O)CC4)c23)cc1OC | inactive
CC(=O)c1c(C)[nH]c(C(=O)COC(=O)CCCOc2ccccc2)c1C | inconclusive: 3.55 µM [inhibitor, full curve]
c1ccc(OCCOCCN2CCN(C(c3ccccc3)c3ccccc3)CC2)cc1 | inactive
COc1ccc(-n2ncc(C(=O)NCc3ccco3)c2C2CCN(C(=O)OC(C)(C)C)CC2)cc1 | inconclusive: 4.47 µM [inhibitor, full curve, poor fit]
CCCCc1ccc(NC(=O)CSC2=NN3CCCC(=O)N=C3S2)cc1 | inconclusive: 44.7 µM [inhibitor, single point]
O=S1(=O)CCC(NC(=S)SCc2ccccc2Br)C1 (stereo not drawn) | inconclusive: 25.1 µM [inhibitor, partial curve]
O=S(=O)(Nc1ccc(N=Nc2ccc(O)c3ccccc23)cc1)c1ccccc1 | inconclusive: 14.1 µM [inhibitor, partial curve]
O=C(COc1cccc2ccccc12)N/N=C/c1ccncc1 | inconclusive: 31.6 µM [inhibitor, partial curve]
O=C(O)C1C2CCC(O2)C1C(=O)NCc1ccc(Cl)cc1 (stereo not drawn) | inconclusive: 35.5 µM [inhibitor, partial curve]
O=[N+]([O-])c1cc(C(F)(F)F)ccc1NCCCCNS(=O)(=O)c1ccc2ccccc2c1 | inconclusive: 22.4 µM [inhibitor, partial curve]
O=C(NC(NC(=S)Nc1c(Cl)cccc1Cl)C(Cl)(Cl)Cl)OCc1ccccc1 (stereo not drawn) | inactive
CCN(CC)c1ccc(N2C(=O)C3CCCCC3C2=O)cc1[N+](=O)[O-] (stereo not drawn) | inconclusive: 28.2 µM [inhibitor, partial curve]
CCCCc1nc2cc(C(=O)N3CCN(c4nc(C)cnc4C)CC3)ccc2o1 | inconclusive: 35.5 µM [inhibitor, single point]
Cn1cnnc1SCC(=O)c1ccc2c(c1)CCCC2 | inconclusive: 25.1 µM [inhibitor, partial curve]
Cc1ccc(NS(=O)(=O)c2ccc(N3CCN(c4ccc(O)cc4)CC3)c([N+](=O)[O-])c2)c(C)c1 | inconclusive: 35.5 µM [inhibitor, partial curve, poor fit]

Compound | Potency
Cc1ccc(O)c(N=Nc2ccccc2)n1 | inconclusive: 20 µM [inhibitor, partial curve]
Cc1cccc(C(=O)NC2CCCc3ccccc32)c1 (stereo not drawn) | inconclusive: 25.1 µM [inhibitor, partial curve]
O=C(/C=C/c1ccccc1[N+](=O)[O-])N1CCN(c2ccccc2F)CC1 | inconclusive: 28.2 µM [inhibitor, partial curve]
O=[N+]([O-])c1cc(C(F)(F)F)cc([N+](=O)[O-])c1NN=C1CCCCC1 | inconclusive: 31.6 µM [inhibitor, single point]
CC(c1nccs1)N(C)C(=O)c1ccc(OC2CCN(CCc3ccccc3)CC2)cc1 (stereo not drawn) | inactive
COc1ccc(NCc2nnc(SCC(=O)c3ccc(OC)cc3)o2)cc1 | inconclusive: 35.5 µM [inhibitor, partial curve]
CCOC(=O)C1=C(Cc2ccc(OC)cc2)C(=O)c2ccccc2C1=O | inconclusive: 39.8 µM [inhibitor, single point]
N=C1C(c2nc3ccccc3s2)=C(O)CN1Cc1ccco1 | inactive
COC(=O)c1ccccc1NC(=O)CCS(=O)(=O)c1ccc(Br)cc1 | inconclusive: 28.2 µM [inhibitor, single point]
Cc1c(NC(=O)/C(C#N)=C/c2c(Oc3ccccc3)nc3ccccn3c2=O)c(=O)n(-c2ccccc2)n1C | inactive
CC1=NN(c2ccccc2)C(=O)/C1=C/C=C/C=C/N(C)C | inconclusive: 28.2 µM [inhibitor, single point]
CCOC(=O)/C(=N/Nc1ccc(OC)cc1)Sc1nnc(CCc2ccccc2)n1-c1ccccc1 | inconclusive: 25.1 µM [inhibitor, single point]
Cc1cc(NC(=O)C(=O)NCCN2CCN(C(=O)c3cccs3)CC2)ccc1Br | inactive
Cc1cccc(CNC(=O)CCn2ccc3cc(S(=O)(=O)N4CCCC4)ccc32)c1 | inconclusive: 35.5 µM [inhibitor, single point]
Cc1ccc(C)c2[nH]c(=O)c(CCNC(=O)c3ccc(S(=O)(=O)N4CCOCC4)cc3)cc12 | inconclusive: 15.8 µM [inhibitor, partial curve]
Nc1ccccc1C(=O)NCc1ccccc1 | inconclusive: 56.2 µM [inhibitor, single point]
COc1ccc(/C=N/OCC(=O)Nc2nc3ccccc3s2)cc1 | inconclusive: 7.08 µM [inhibitor, partial curve]
CCCCSc1nc(C)cc(SCC(=O)N/N=C/c2cccc(OC)c2O)n1 | inconclusive: 12.6 µM [inhibitor, partial curve]
c1ccc(-c2csc(N3CCOCC3)n2)cc1 | inconclusive: 35.5 µM [inhibitor, partial curve]
O=C(Nc1ccccc1C(=O)OCc1cc(=O)n2c3c(sc2n1)CCCC3)c1cccc(Cl)c1 | inactive
COc1ccc(/C=C2/SC(=S)N(n3c(C)ccc3C)C2=O)cc1 | inconclusive: 28.2 µM [inhibitor, partial curve, poor fit]

Compound | Potency
O=C(CSc1nccn1Cc1ccccc1)NCc1ccccc1Cl | inconclusive: 28.2 µM [inhibitor, single point]
O=C(CNC(=O)c1ccc2c(c1)OCCO2)N/N=C/c1ccc(O)cc1O | inconclusive: 35.5 µM [inhibitor, single point]
N#Cc1c(SCC(=O)Nc2nccs2)nc2c(c1-c1ccco1)CCCC2 | inconclusive: 17.8 µM [inhibitor, partial curve]
Cc1cc(C)nc(NS(=O)(=O)c2ccc(NC(=O)COc3ccc(C(C)(C)C)cc3)cc2)n1 | inconclusive: 28.2 µM [inhibitor, partial curve]
COc1ccc(-c2cc(C(F)(F)F)nc(SCC(=O)Nc3cc(C)on3)n2)cc1 | inactive
CCOC(=O)C1CCCCN1C(=O)c1oc2c(Cl)cc(C)cc2c1C (stereo not drawn) | inconclusive: 35.5 µM [inhibitor, partial curve]
CC(=O)C1=C(O)C=C(c2ccco2)CC1c1ccco1 (stereo not drawn) | inconclusive: 35.5 µM [inhibitor, partial curve]
N/C(=N\OC(=O)COc1ccc2ccccc2c1Br)c1ccccn1 | inconclusive: 12.6 µM [inhibitor, partial curve]
O=c1c2ccccc2nnn1Cc1ccc(F)cc1 | inconclusive: 28.2 µM [inhibitor, partial curve]
Cc1ccc(S(=O)(=O)NCCc2ccncc2)cc1C | inconclusive: 20 µM [inhibitor, partial curve]
Cc1ccccc1-c1nnc(SCC(=O)Nc2ccc3c(c2)OCCO3)n1N | inconclusive: 25.1 µM [inhibitor, partial curve]
CCOC(=O)c1sc(NC(=O)c2cc(-c3ccc(F)cc3)on2)c(C(=O)OCC)c1C | inactive
Cc1c(CC(=O)NCCc2ccc(Cl)cc2)c(=O)oc2c(C)c3occ(C(C)(C)C)c3cc12 | inconclusive: 3.55 µM [inhibitor, full curve]
COc1cccc(N(C(=O)c2nc3nccc(C)n3n2)c2nc3ccccc3s2)c1 | inconclusive: 50.1 µM [inhibitor, single point]
CC1CCCC(NC(=O)COC(=O)[C@@H](NC(=O)c2ccco2)C(C)C)C1C (stereo partly drawn) | inconclusive: 31.6 µM [inhibitor, partial curve]
Oc1ccc(/C=N/Nc2nc(N3CCCCCC3)nc(N3CCCCCC3)n2)c(O)c1 | inconclusive: 3.55 µM [inhibitor, full curve]
Nc1ccc(CCc2nc3ccccc3o2)cc1 | inconclusive: 25.1 µM [inhibitor, partial curve]
CCCN(CCC)C(=O)CSc1nc2sc3c(c2c(=O)n1-c1ccccc1)CCN(C(C)=O)C3 | inconclusive: 56.2 µM [inhibitor, partial curve, poor fit]
C=CCc1cccc(/C=N/NC(=O)c2ccccc2OC)c1O | inconclusive: 25.1 µM [inhibitor, partial curve]
O=C(NCc1cccc(F)c1)c1cccc(NC(=O)c2nsc3ccccc23)c1 | inconclusive: 3.16 µM [inhibitor, partial curve]
CC(Sc1ccccc1)C(=O)N1CCN(S(=O)(=O)c2ccccc2)CC1 (stereo not drawn) | inactive
